Screen size: about 420,000 compounds; about 50,000 (12%) were called active. Inconclusive means that the source gave no clear call. Such entries were picked first, then a sample of the others. Calls come from the whole dose curve; as a rule, active = well fitted inhibition curve with a large enough effect; inconclusive = small, poorly fitted or top-dose-only effect; inactive = flat fitted curve, though single readings scatter. Potencies of inconclusive entries are left out as doubtful fits.
Assay: qHTS for Inhibitors of human tyrosyl-DNA phosphodiesterase 1 (TDP1): qHTS in cells in presence of CPT; note: nearly all actives have a fitted effect of over 55% in size
Settings: chicken DT40 Tdp1-/-;hTDP1 cells + 20 nM CPT, ATP luminescence, 48 h; activity change, negative = growth inhibition: at 46.2 µM (top of the series) unless noted
In short: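 Chicken DT40 Tdp1-/- cells complemented with human TDP1, 400 cells/well, exposed to compounds plus 20 nM camptothecin for at least 48 h at 37 C; viability read as ATP content by CellTiter-Glo luminescence.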
% is set by controls: 0 for no effect and ±100 for the full control effect; potency is the fitted concentration of half-maximal effect; tags give direction and shape of the fitted curve.

Row | Structure (SMILES) | Potency | activity change, negative = growth inhibition
1 | O=C(CSCc1ccc(F)cc1)Nc1ccc(N2CCOCC2)cc1N1CCOCC1 | inconclusive [inhibitor, single point] | 
2 | CCOc1ccc(NC(=O)CN2C(=O)COc3ccc(S(=O)(=O)N4CCCCC4)cc32)cc1 | inconclusive [inhibitor, single point] | 
3 | Cc1nn(-c2ccccc2)c2c1C(c1ccc([N+](=O)[O-])cc1)C(C#N)=C(N)O2 (stereo unspecified) | active: 14.6 µM | 
4 | CCOc1ccccc1N1CCN(C(=O)CCCN2C(=O)c3cccc4cccc(c34)C2=O)CC1 | active: 20.6 µM | 
5 | CCC(CC)n1[nH]c(=O)cc1N |  | inactive: -5.9%
6 | CC1CCCCN1C(=O)CSc1nnc(-c2c[nH]c3ccccc23)o1 (stereo unspecified) | inconclusive [inhibitor, partial curve] | 
7 | COC(=O)[C@H]1[C@H](CCc2ccccc2)NC(=O)N(Cc2ccccc2)[C@@H]1C | inconclusive [inhibitor, single point] | 
8 | O=c1c2c(nc3cc(-c4cccc(Cl)c4)[nH]n13)CCC2 |  | inconclusive: -31.1% [inhibitor]
9 | CC(C)=CCc1c(O)cc2c(c1O)C(=O)CC(c1ccccc1)O2 (stereo unspecified) |  | inactive: -1.06%
10 | CCS(=O)(=O)N1CCN(S(=O)(=O)c2ccc3ccccc3c2)CC1 | inconclusive [inhibitor, full curve, poor fit] | 
11 | C/C=C/c1ccc(OCC(O)CN2CCCCCCC2)c(OC)c1 (stereo unspecified) | inconclusive [inhibitor, single point] | 
12 | Cc1ccc(S(=O)(=O)NC(=O)c2cc(C)n(-c3cc(S(=O)(=O)N4CCOCC4)ccc3N3CCCC3)c2C)cc1 | inconclusive [inhibitor, partial curve, poor fit] | 
13 | NC(=O)c1ccc(NC(=O)c2ccc(CN3CCOCC3)cc2)cc1 |  | inactive: 0.528%
14 | COc1ccc(Nc2nc3ccccc3n3cnnc23)cc1Cl | inconclusive [inhibitor, single point] | 
15 | S=C(c1ccc(-c2ccc(Br)cc2)o1)N1CCOCC1 | inconclusive [inhibitor, partial curve] | 
16 | COc1cc(OC)cc(C(=O)NCCOc2ccccc2)c1 |  | inactive: -18.3%
17 | CCOC(=O)N1CCN(C(=O)Cc2ccsc2)CC1 | inconclusive [inhibitor, partial curve, poor fit] | 
18 | Brc1ccc(-c2nc3ccc(Br)cn3c2Cc2ccccc2)cc1 | inconclusive [inhibitor, single point] | 
19 | Clc1ccccc1Nc1nc(NCc2cccs2)nc2ccsc12 | inconclusive [inhibitor, partial curve, poor fit] | 
20 | C[C@@H]1CN([C@H](C)CO)C(=O)CCCn2nncc2CO[C@H]1CN(C)Cc1ccncc1 |  | inactive: 4.23%
21 | CC(=O)c1ccccc1-c1ccc2c(c1)CC(CNC(=O)C[C@@H]1C[C@@H](C)NC(=S)N1)O2 (stereo partly specified) |  | inactive: -7.94% [at 9.04 µM]
22 | Cc1cc(Nc2cc(F)ccc2C)nc(-n2nc(C)cc2C)n1 | active: 5.17 µM | 
23 | Cc1ccc2[nH]c(=O)c(CN(Cc3ccco3)Cc3nnnn3Cc3ccco3)cc2c1 | inconclusive [inhibitor, single point] | 
24 | Cc1ccc2nc(C3CCCCC3)c(Cc3ccsc3)n2c1 | active: 13 µM | 

Row | Structure (SMILES) | Potency | activity change, negative = growth inhibition
25 | COc1ccccc1-c1nnc2sc(-c3cc4ccccc4o3)nn12 | active: 1.16 µM | 
26 | Cc1c(C(=O)N2CCC(C)CC2)c(S(=O)(=O)Nc2ccc(OC(F)(F)F)cc2)c(C)n1C | inconclusive [inhibitor, single point] | 
27 | CC(C)N(Cc1ccccc1)C(=O)CN1C(=O)CSc2ccc(S(=O)(=O)N3CCCC3)cc21 | active: 11.6 µM | 
28 | CC(=O)Nc1cccc(-c2nc3ccc(NC(C)=O)cc3s2)c1 | inconclusive [inhibitor, single point] | 
29 | CN(C)S(=O)(=O)N(CC(=O)NCCSc1ccccc1)c1ccccc1 |  | inconclusive: -30.1% [inhibitor]
30 | CCOc1ccc(CCNC(=O)CCn2ccc3cc(S(=O)(=O)N4CCCC4)ccc32)cc1 | inconclusive [inhibitor, single point] | 
31 | O=C(COC(=O)c1ccccc1C(=O)N1CCN(c2ccccc2)CC1)NCc1ccccc1 | inconclusive [inhibitor, single point] | 
32 | CCCCCN(C(=O)CCC(=O)OCc1cc(C)ccc1C)c1c(N)n(CCCC)c(=O)[nH]c1=O | active: 23.1 µM | 
33 | CS(=O)(=O)c1ccc(C(=O)Nc2nc(-c3ccco3)c(-c3ccco3)s2)cc1 | inconclusive [inhibitor, single point] | 
34 | COc1ccc(NC(=O)c2cc(S(=O)(=O)N3CCCCC3)c[nH]2)c(OC)c1 |  | inactive: -20.1%
35 | CN(C(=O)c1cccc(NC(=O)Cc2cccc(NC(=O)C3CCCN(C(=O)c4ccccc4)C3)c2)c1)C1CCC1 (stereo unspecified) | inconclusive [inhibitor, single point] | 
36 | CC(=O)N1Cc2cc(N)ccc2Oc2ccccc21 |  | inactive: 0.276%
37 | O=C(c1ccccc1)c1ccsc1C(=O)c1ccccc1 |  | inactive: -14.1%
38 | COc1ccc(NC(=O)COC(=O)C2COc3ccccc3O2)cc1 (stereo unspecified) |  | inactive: -5.6%
39 | Cc1ccc(N(C)S(=O)(=O)c2cccc(C(=O)OCC(=O)N3CCCC(C)C3)c2)cc1 (stereo unspecified) |  | inactive: 7.47%
40 | CC(C)c1ccc(-n2c(-c3ccccc3)c[n+]3c2CCc2ccccc2-3)cc1 | active: 0.0073 µM | 
41 | CC(C)CC(=O)Nc1c(C(=O)N2CCN(Cc3ccccc3)CC2)oc2ccccc12 | inconclusive [inhibitor, single point] | 
42 | COc1cccc(OCC(=O)Nc2ccccc2-c2ccccc2)c1 | inconclusive [inhibitor, partial curve] | 
43 | COc1ccc(/C=N/NC(=O)c2nc(-c3ccccc3)n(-c3ccccc3)n2)c(O)c1 | inconclusive [inhibitor, single point] | 
44 | C[C@@H]1C[C@H]2[C@@H]3CCC4=CC(=O)C=C[C@]4(C)[C@@]3(F)[C@@H](O)C[C@]2(C)[C@@]1(O)C(=O)COP(=O)(O)O | inactive | 
45 | O=C(NNC(=S)NCc1ccccc1)c1ccc2c(c1)OCO2 |  | inactive: -3.11%
46 | COC(=O)c1ccc(CNC(=O)CNc2cc(C(F)(F)F)ccc2N2CCOCC2)cc1 |  | inactive: -6.63%
47 | Cc1cc(C)nc(/N=C(\N)Nc2ccc3c(c2)OCCO3)n1 | active: 20.6 µM | 
48 | CCCCOC(=O)C(C#N)c1nc2ccccc2nc1N1CCOCC1 (stereo unspecified) | inconclusive [inhibitor, single point] | 

Row | Structure (SMILES) | Potency | activity change, negative = growth inhibition
49 | COC(=O)[C@@]1(Cc2ccc(F)cc2)[C@H]2c3cc(C(=O)N4CCCC4)n(CC4CC4)c3C[C@H]2CN1C(=O)c1ccccc1 | inconclusive [inhibitor, single point] | 
50 | COc1ccc2oc(C(=O)OCC(=O)NCc3ccco3)c(C)c2c1 |  | inactive: -2.99%
51 | COc1cccc(NC(=O)c2ccccc2NS(C)(=O)=O)c1 |  | inconclusive: -33.2% [inhibitor]
52 | Cc1nonc1NC(=O)CSc1nc2c(C)cccc2cc1C#N | inconclusive [inhibitor, single point] | 
53 | O=C1N(c2ccccc2C(F)(F)F)O[C@@]1(c1ccccc1)C1CCCCC1 | active: 13 µM | 
54 | O=C(C1CCCCC1)N1CCC(c2nc3c(nnn3Cc3ccccc3Cl)c(=O)[nH]2)CC1 |  | inactive: -18%
55 | CCN(CC)CCNC(C(=O)OCCC(C)C)c1ccccc1 (stereo unspecified) | active: 9.44 µM | 
56 | O=C(Nc1cccc(NC(=O)c2ccccc2Cl)c1)c1cccs1 |  | inconclusive: -32% [inhibitor]
57 | N#Cc1c[nH]n2c(NC3CCCC3)c(-c3ccc(Cl)cc3)nc12 | inconclusive [inhibitor, single point] | 
58 | NC(N)=Nc1nc2ccc(Cl)cc2c(=O)[nH]1 | inconclusive [inhibitor, single point] | 
59 | FC(F)(F)c1cnc(-c2cnc(-c3ccccn3)nc2)c(Cl)c1 | inconclusive [inhibitor, single point] | 
60 | Cc1ccc(-c2ccc(S(=O)(=O)Nc3cccnc3)cc2)cc1 | inconclusive [inhibitor, partial curve] | 
61 | Cc1cc(N/C(=N/S(=O)(=O)c2cc(F)ccc2F)c2ccccc2)n(-c2ccccc2)n1 | inconclusive [inhibitor, single point] | 
62 | Cc1ccccc1C(=O)Oc1ccc(Cl)cc1C(=S)N1CCOCC1 | inconclusive [inhibitor, single point] | 
63 | Cc1ccc(-n2nnnc2SCC(=O)Nc2ccc(N3CCN(C)CC3)cc2)c(C)c1 | inconclusive [inhibitor, single point] | 
64 | Cc1ccc(/C(O)=C/c2nc3ccccc3oc2=O)cc1 |  | inactive: -26.5%
65 | O=C(Nc1cccc(-c2ccc(N3CCCCC3)nn2)c1)c1ccco1 | inconclusive [inhibitor, single point] | 
66 | Cc1ccc(C)c(OCC(=O)NC2CCCCCC2)c1 |  | inactive: -28.4%
67 | C/C(=N/N1CCN(c2ccccn2)CC1)c1cccc([N+](=O)[O-])c1 |  | inactive: -5.45%
68 | C#CCN(C(=O)c1ccc(OC2CCN(C(=O)CCOC)CC2)cc1)C1CCCCC1 | active: 23.1 µM | 
69 | CNc1ccc(C=C2c3ccccc3-c3ccccc32)cc1 | inconclusive [inhibitor, single point] | 
70 | CC(C)(C)N(Cc1nc(-c2ccccc2)no1)C(=O)c1ccc2c(c1)OCO2 | inconclusive [inhibitor, single point] | 
71 | CCOC(=O)Cc1csc(NC(=O)C2CCCN(S(=O)(=O)c3cnc[nH]3)C2)n1 (stereo unspecified) |  | inactive: -2.93%

— PubChem BioAssay AID686979 (National Center for Advancing Translational Sciences (NCATS), 2013)
